We go through 90 molecules from PubChem BioAssay AID463173 (ICCB-Longwood Screening Facility, Harvard Medical School, 2010).

Among all 52,000 compounds or so, about 4,300 (8.3%) were called active. No stated cut-off is given here; in the data, active means survival mostly below about 52% (no sharp cut-off); inactive means mostly above about 56%. This is one part of the list.

This experiment has as its system DeltatarO mutant. As to the kind of experiment: S. aureus survival, RN4220 and DeltatarO strains – OD600, teichoic acid synthesis inhibitors, primary screen (AID 463173). To be noted: S. aureus RN4220 wild type/DeltatarO growth, OD600, 18 h, hits give low values, screened at 18.75 µg/mL (by protocol).
For the molecule `COc1ccccc1-c1cc(C(=O)Nc2ccccc2C(F)(F)F)no1`, the survival is inactive: 71%. For `O=C(O)c1ccc(-n2c(/C=C\c3ccc(O)cc3)nc3ccccc3c2=O)cc1` the value was active: 58%. For `Cc1ccc(C2=Nc3ccccc3N(CC(=O)NCc3ccc(F)cc3)C(=O)C2)cc1C` the value was inactive: 90%; for `COc1ccc(/C=C(\C#N)c2nc(-c3cc4c(ccc5ccccc54)oc3=O)cs2)cc1O`, inactive: 56%; for `CCOC(=O)c1ccccc1NC(=O)c1sc2ncn(Cc3cccc(F)c3)c(=O)c2c1C`, inactive: 86%. Take `Nc1cc(N)nc(SCCN2CCOCC2)n1`: the survival was inactive: 74%. The value for `COc1cn(CC(=O)Nc2cccc(C)c2C)c(CN2CCCCC2)cc1=O` was inactive: 80%. In the case of `Cc1ccc(C)c(NC(=O)CSc2c3c(nc4ccc(Cl)cc24)CCCC3)c1`, the survival is inactive: 53%. The value for `CC1=C(C(=O)Nc2cccnc2)C(c2ccc(Cl)cc2)n2nc(-c3ccccc3)nc2N1` (stereo not given) was inactive: 62%; that for `COc1ccc(OC)c(S(=O)(=O)NCc2cccn2Cc2cccc(C)c2)c1` was inactive: 84%. The value for `COc1ccc(C(=O)Nc2cccc(OCc3cc(=O)n4c5c(sc4n3)CCCC5)c2)cc1` was inactive: 55%; that for `Cn1c(=O)c2c(nc3n(-c4ccc(O)cc4)c(-c4ccc(Br)cc4)cn23)n(C)c1=O` was inactive: 146%; that for `COc1cc(OC)c(C2Nc3c(C)cccc3-c3cc(C)nn32)cc1OC` (stereo not given) was inactive: 184%.

On to `CCN1C(=O)c2ccccc2S(=O)c2ccc(C(=O)N3CCN(c4cccc(C)c4)C(C)C3)cc21` (stereo not given), for which the survival was inactive: 109%. The value for `CC1=C(c2ccc(C)cc2)S(=O)(=O)NC1=NCc1cccc(F)c1` was inactive: 92%; that for `COC(=O)c1ccc(NC(=O)CC2C(=O)N(c3ccc(Cl)cc3)C(=O)N2Cc2ccco2)cc1` (stereo not given) was active: 37%. The value for `Cc1[nH]c2ccccc2c1C1N2CC3(C)CN1CC(C)(C2)C3=O` (stereo not given) was inactive: 77%; that for `Cc1nn(C)c2c1c(C(F)(F)F)cc(=O)n2C(C)C(=O)NCc1ccc(Cl)cc1` (stereo not given) was inactive: 62%. The value for `O=C(Nc1ccc(Br)cc1F)N1CCC(CN2CCCC2)CC1` was inactive: 82%; that for `CC1=C(C(=O)OCc2ccccc2)C(c2cccc(Cl)c2Cl)CC(=O)N1` (stereo not given) was inactive: 90%. In the case of `N/N=C1\C(=N/O)CCc2nonc21`, the survival was inactive: 95%.

Regarding `Cc1cccc(CNC(=O)CSCc2cnn(-c3ccccc3)c2-n2cccc2)c1`, the survival was inactive: 68%. On to `Cc1cc(=O)[nH]c(SCC(=O)N2CCCCC2)n1`, for which the survival is inactive: 118%. With `CCOC(=O)c1ccc(NS(=O)(=O)c2cc(-c3onc(C)c3C)ccc2C)cc1`, the survival is inactive: 84%.

On to `COc1cc(C(=O)N2CCN(C(=O)C(Cc3cc(C)ccc3C)NC(C)=O)CC2)cc(OC)c1OC` (stereo not given), for which the survival is inactive: 98%. Regarding `CN1C(=O)C(=C(C#N)C#N)c2cc(Br)ccc21`, the survival is inactive: 98%. As for `COC(=O)c1ccc(CSc2nnc3ccc4ccccc4n23)cc1`, the survival is inactive: 74%. Consider `CCn1cc2c(n1)-c1c(oc(C(=O)Nc3cccc(C(F)(F)F)c3)c1C)CC2`, for which the survival is inactive: 65%. For `COc1ccccc1Cn1cc(C(=O)c2ccc(C)cc2)c(=O)c2cc3c(cc21)OCCO3` the value was inactive: 84%; for `CCOc1cc2sc(N3CCC(C(=O)Nc4cc(C)cc(C)c4)CC3)nc2cc1Br`, inactive: 114%; for `Cc1cc(=O)c2cc(C(=O)Nc3ccccc3C)ccc2[nH]1`, inactive: 84%. As to `COC(=O)c1cc2sc(Cl)cc2n1Cc1cc(C)ccc1C`, the survival was inactive: 94%. With `CCOc1ccc(CNC(=O)CCCc2cn(C)c3ccccc23)cc1OC`, the survival was inactive: 86%. Consider `CCc1ccccc1NC(=O)Cn1c2ncccc2c(=O)n1-c1ccccc1`, for which the survival was inactive: 100%. As to `COc1ccc(Cn2ccc3nc(C)c(C(=O)NCc4cccc(OC)c4)cc3c2=O)cc1`, the survival is inactive: 94%. For `Cc1ccc(-n2nc3c(=O)n(CC(=O)NCC(C)c4ccccc4)nc(C)c3c2C)cc1` (stereo not given) the value was inactive: 73%. The value for `CC(=O)Nc1ccc(NC(=O)CC2C(=O)Nc3ccccc3N2C(C)=O)cc1` (stereo not given) was inactive: 98%; that for `Cc1ccc(-n2nc3c(N4CCC(C(=O)NCc5ccccc5Cl)CC4)nnc(C)c3c2C)cc1` was inactive: 116%; that for `CC(=O)c1ccc(NC(=O)CCOc2ccccc2)cc1` was inactive: 146%. For the molecule `COc1ccc(OC)c(S(=O)(=O)NCCc2csc(-c3cccc(F)c3)n2)c1`, the survival is inactive: 102%. The value for `CCOC(=O)c1c(C)[nH]c(C)c1S(=O)(=O)NCC(=O)N1CCN(c2ccccc2OC)CC1` was inactive: 102%; that for `CCN(CC)C(=O)Nc1ccc2c(c1)N(Cc1ccccc1)C(=O)c1ccccc1S2` was inactive: 60%; that for `Cc1ccc(N(C)C(=O)c2cc(S(=O)(=O)N3CCOCC3)cn2C)cc1` was inactive: 92%. For `CCCN(Cc1cccs1)C(=O)Nc1cc(OC)ccc1OC` the value was inactive: 58%; for `COc1ccc(CCNC(=O)CCCCn2c(=O)c3ccccc3n(Cc3ccccc3Cl)c2=O)cc1OC`, inactive: 88%. For `COc1ccccc1-c1noc(CCCC(=O)Nc2cc(C)ccc2C)n1` the value was inactive: 54%; for `COc1ccc(C(=O)Nc2ccc(C(=O)OCc3cc(=O)n4nc(C5CC5)sc4n3)cc2)cc1`, active: -1%; for `CC(C)C(OC(=O)c1cccs1)C(=O)NC1CCCC1` (stereo not given), inactive: 96%. Turning to `COc1ccc(N(C(=O)/C=C\C(=O)Nc2ccc(C)cc2)C(C(=O)NCc2ccco2)c2ccc(C)cc2)cc1` (stereo not given), the survival is inactive: 88%. As for `CCCn1c(=NC(=O)c2cc3ccccc3o2)c(C(=O)OCC)cc2c(=O)n3ccccc3nc21`, the survival is active: 27%. The value for `O=C(Cn1ncc2ccsc2c1=O)N1CCN(c2ccccc2F)CC1` was inactive: 94%. As for `O=S(=O)(c1ccc(-n2cnnn2)cc1)N1CCN(c2cccc(Cl)c2)CC1`, the survival is inactive: 76%. Take `Cc1c(C(=O)N2CCCCCC2)c(S(=O)(=O)N(Cc2ccccc2)C(C)(C)C)c(C)n1C`: the survival is inactive: 99%. The value for `CCc1cccc(C)c1NC(=O)CN1CCCN(Cc2ccccc2Cl)S1(=O)=O` was inactive: 55%; that for `COc1cc(C2c3c(-c4ccccc4O)n[nH]c3C(=O)N2Cc2ccco2)ccc1OCC(C)C` (stereo not given) was active: 7%. As to `CCOc1ccccc1NC(=O)C(CC)n1c(C(=O)OC)cc2occc21` (stereo not given), the survival was active: -4%.

For the molecule `Cc1csc(N/N=C\CCc2ccccc2)n1`, the survival was inactive: 98%. The value for `Cc1ccc(NC(=O)CN(C)S(=O)(=O)c2cnc[nH]2)cc1` was inactive: 102%. Turning to `COc1ccccc1OCC(=O)NCC(c1ccc(Cl)cc1)N1CCOCC1` (stereo not given), the survival was inactive: 67%. For `Cc1ccc(C)c(CN2C(=O)c3ccccc3S(=O)c3ccc(C(=O)N4CCN(c5cccc(Cl)c5)CC4)cc32)c1` (stereo not given) the value was inactive: 116%; for `Cc1ccc(NC(=O)Cn2c(=O)n(CCCCC(=O)NCc3ccccc3Cl)c(=O)c3ccccc32)cc1`, inactive: 83%. For `Cc1cc2ncn(S(=O)(=O)c3ccc(S(N)(=O)=O)cc3)c2cc1C` the value was inactive: 84%. In the case of `CCCc1nn2c(=O)cc(COc3ccc(/C=C(\C#N)C(=O)Nc4ccccc4)cc3)nc2s1`, the survival was inactive: 66%.

On to `CC(C)CC(=O)NC1(C(F)(F)F)C(=O)Nc2c1c(=O)[nH]c(=O)n2-c1ccccc1` (stereo not given), for which the survival was inactive: 182%. The value for `N=C(N)N1CCN(CC(O)COc2ccccc2)CC1` (stereo not given) was inactive: 84%; that for `NC1CCC(c2ccccc2)CC1` (stereo not given) was inactive: 78%. Turning to `Cc1ccc(-n2c(=O)c3cccnc3n2CC(=O)Nc2cc(Cl)ccc2C)cc1`, the survival is inactive: 123%. With `O=c1cc(-c2ccccc2)n2c(SCc3c(F)cccc3Cl)nnc2[nH]1`, the survival is inactive: 71%. In the case of `COc1ccc(CSc2nc3ccncc3n2CC(=O)Nc2ccc(C)c(F)c2)cc1`, the survival was inactive: 85%. For `CCc1ccccc1NC(=O)Cn1c(=O)n(-c2ccc(CC(=O)NCC3CCCO3)cc2)c(=O)c2ccccc21` (stereo not given) the value was inactive: 96%; for `Cc1ccccc1C(=O)Nc1ccc2nc(SCC(=O)N3CCc4ccccc43)sc2c1`, inactive: 106%; for `COc1ccc(CNC(=O)c2ccc3c(c2)N(Cc2ccc(C)cc2)CCS3)cc1`, inactive: 71%. The value for `CCOC(=O)c1cnc2nc(NCc3cccc(Br)c3)[nH]n2c1=O` was inactive: 86%; that for `CC(C)=NOC1=NS(=O)(=O)c2ccccc21` was inactive: 92%; that for `COc1ccccc1CNS(=O)(=O)c1ccc(-c2cnc(C3CC3)o2)cc1` was inactive: 75%.

In the case of `Cn1ccc2c(OCC(=O)NCc3ccccc3)cccc2c1=O`, the survival is inactive: 100%. The value for `COCCNC(=O)c1c[nH]c2ccc(S(=O)(=O)Nc3ccc(F)cc3F)cc2c1=O` was inactive: 98%; that for `CC(C)c1nn2c(=O)cc(COC(=O)c3cccc(NC(=O)c4cccs4)c3)nc2s1` was inactive: 70%; that for `CCCOc1ccc(-c2nonc2NC(=O)c2cc(OC)c(OC)c(OC)c2)cc1OCCC` was inactive: 84%. Take `CCc1ccc(C2=NN(CCC(=O)NCCc3ccc(OC)c(OC)c3)C(=O)CC2)cc1`: the survival was inactive: 88%.

With `O=C(c1cc2ccccc2oc1=O)N(Cc1cccs1)Cc1cccs1`, the survival is inactive: 48%. Regarding `Cc1ccc(N2CC(NC(=O)c3cc4ccccc4o3)CC2=O)cc1C` (stereo not given), the survival is inactive: 102%.

In the case of `Clc1ccc(-c2nc3c4cnn(-c5ccccc5Br)c4ncn3n2)c(Cl)c1`, the survival is inactive: 77%.

Regarding `COC(=O)CSc1nc2sc3c(c2c(=O)n1-c1ccccc1C)CC(C)(C)OC3`, the survival is inactive: 73%. Consider `Cc1ccccc1NC(=O)c1sc2nc3n(c(=O)c2c1C)CCC3`, for which the survival is inactive: 78%. For `CCc1ccc(NS(=O)(=O)c2cc(-c3cnc(C4CC4)o3)ccc2C)cc1` the value was inactive: 116%.

As for `Cc1oc(-c2ccc(C(=O)NCCC(C)C)cc2)nc1CN1CCc2ccccc21`, the survival is inactive: 95%. For the molecule `COc1ccccc1CNC(=O)CC(c1ccc(C)cc1)N1Cc2ccccc2C1=O` (stereo not given), the survival is inactive: 67%. The value for `Cc1cc(C)cc(-n2ccn(Cc3ccccc3C)c(=O)c2=O)c1` was inactive: 69%; that for `O=C(CCC1CCCC1)NCc1ccco1` was inactive: 71%.
